Assay results as given in the supplement of paper PMC8728848.
This is one part of the list.

Tests used:
Experiment in all cases: glycan array binding signal (z-score within array); higher = stronger binding
Settings in all cases: glycan notation: IUPAC condensed, linker removed
Glc(b1-4)Glc = target: Glc(b1-4)Glc
How it was run: (§1)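 Arrays were curated from the Consortium for Functional Glycomics database, 3228 in total, and kept only where the protein sequence was available. Binding is expressed as a within-array Z-score. This score was averaged across arrays of the same protein sequence at different concentrations or buffers and across linkers, and negative values can be read as non-binding.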

Glc(b1-6)Glc = target: Glc(b1-6)Glc
How it was run: as §1

GlcA(b1-3)Gal = target: GlcA(b1-3)Gal
How it was run: as §1

GlcA(b1-3)GlcNAc = target: GlcA(b1-3)GlcNAc
How it was run: as §1

GlcA(b1-6)Gal = target: GlcA(b1-6)Gal
How it was run: as §1

[1] = target: GlcA3S(b1-3)Gal(b1-4)GlcNAc(b1-2)Man
How it was run: as §1

[2] = target: GlcA3S(b1-3)Gal(b1-4)GlcNAc(b1-3)Gal(b1-4)Glc
How it was run: as §1

[3] = target: GlcNAc(a1-3)Gal(b1-4)GlcNAc
How it was run: as §1

[4] = target: GlcNAc(a1-4)Gal(b1-3)GlcNAc
How it was run: as §1

[5] = target: GlcNAc(a1-4)Gal(b1-4)GalNAc
How it was run: as §1

[6] = target: GlcNAc(a1-4)Gal(b1-4)GlcNAc
How it was run: as §1

[7] = target: GlcNAc(a1-4)Gal(b1-4)GlcNAc(b1-3)Gal(b1-4)Glc
How it was run: as §1

[8] = target: GlcNAc(a1-4)Gal(b1-4)GlcNAc(b1-3)Gal(b1-4)GlcNAc
How it was run: as §1

[9] = target: GlcNAc(a1-4)Gal(b1-4)GlcNAc(b1-3)Gal(b1-4)GlcNAc(b1-3)Gal(b1-4)GlcNAc
How it was run: as §1

[10] = target: GlcNAc(a1-4)Gal(b1-4)GlcNAc(b1-3)Gal(b1-4)[Fuc(a1-3)]GlcNAc(b1-3)Gal(b1-4)[Fuc(a1-3)]GlcNAc
How it was run: as §1

[11] = target: GlcNAc(a1-6)Gal(b1-4)GlcNAc
How it was run: as §1

[12] = target: GlcNAc(b1-2)Gal(b1-3)GalNAc
How it was run: as §1

[13] = target: GlcNAc(b1-2)Man(a1-3)[GlcNAc(b1-2)Man(a1-6)]Man(b1-4)GlcNAc(b1-4)GlcNAc
How it was run: as §1

[14] = target: GlcNAc(b1-2)Man(a1-3)[GlcNAc(b1-2)Man(a1-6)]Man(b1-4)GlcNAc(b1-4)[Fuc(a1-6)]GlcNAc
How it was run: as §1

[15] = target: GlcNAc(b1-2)Man(a1-3)[GlcNAc(b1-4)][GlcNAc(b1-2)Man(a1-6)]Man(b1-4)GlcNAc(b1-4)GlcNAc
How it was run: as §1

[16] = target: GlcNAc(b1-2)Man(a1-3)[GlcNAc(b1-4)][GlcNAc(b1-2)Man(a1-6)]Man(b1-4)GlcNAc(b1-4)[Fuc(a1-6)]GlcNAc
How it was run: as §1

[17] = target: GlcNAc(b1-2)[GlcNAc(b1-4)]Man(a1-3)[GlcNAc(b1-2)Man(a1-6)]Man(b1-4)GlcNAc(b1-4)GlcNAc
How it was run: as §1

[18] = target: GlcNAc(b1-2)[GlcNAc(b1-4)]Man(a1-3)[GlcNAc(b1-4)][GlcNAc(b1-2)Man(a1-6)]Man(b1-4)GlcNAc(b1-4)GlcNAc
How it was run: as §1

[19] = target: GlcNAc(b1-2)[GlcNAc(b1-4)]Man(a1-3)[GlcNAc(b1-4)][GlcNAc(b1-2)[GlcNAc(b1-6)]Man(a1-6)]Man(b1-4)GlcNAc(b1-4)GlcNAc
How it was run: as §1

[20] = target: GlcNAc(b1-2)[GlcNAc(b1-4)]Man(a1-3)[GlcNAc(b1-4)][GlcNAc(b1-2)[GlcNAc(b1-6)]Man(a1-6)]Man(b1-4)GlcNAc(b1-4)[Fuc(a1-6)]GlcNAc
How it was run: as §1

[21] = target: GlcNAc(b1-2)[GlcNAc(b1-6)]Man(a1-6)[GlcNAc(b1-2)Man(a1-3)]Man(b1-4)GlcNAc(b1-4)GlcNAc
How it was run: as §1

[22] = target: GlcNAc(b1-2)[GlcNAc(b1-6)]Man(a1-6)[GlcNAc(b1-2)Man(a1-3)]Man(b1-4)GlcNAc(b1-4)[Fuc(a1-6)]GlcNAc
How it was run: as §1

[23] = target: GlcNAc(b1-2)[GlcNAc(b1-6)]Man(a1-6)[GlcNAc(b1-4)][GlcNAc(b1-2)Man(a1-3)]Man(b1-4)GlcNAc(b1-4)GlcNAc
How it was run: as §1

GlcNAc(b1-3)Fuc = target: GlcNAc(b1-3)Fuc
How it was run: as §1

GlcNAc(b1-3)Gal = target: GlcNAc(b1-3)Gal
How it was run: as §1

[24] = target: GlcNAc(b1-3)Gal(b1-3)GalNAc
How it was run: as §1

GlcNAc(b1-3)Gal(b1-4)Glc = target: GlcNAc(b1-3)Gal(b1-4)Glc
How it was run: as §1

[25] = target: GlcNAc(b1-3)Gal(b1-4)GlcNAc
How it was run: as §1

[26] = target: GlcNAc(b1-3)Gal(b1-4)GlcNAc(b1-2)Man(a1-3)[GlcNAc(b1-3)Gal(b1-4)GlcNAc(b1-2)Man(a1-6)]Man(b1-4)GlcNAc(b1-4)GlcNAc
How it was run: as §1

[27] = target: GlcNAc(b1-3)Gal(b1-4)GlcNAc(b1-2)Man(a1-3)[GlcNAc(b1-3)Gal(b1-4)GlcNAc(b1-2)Man(a1-6)]Man(b1-4)GlcNAc(b1-4)[Fuc(a1-6)]GlcNAc
How it was run: as §1

[28] = target: GlcNAc(b1-3)Gal(b1-4)GlcNAc(b1-2)[GlcNAc(b1-3)Gal(b1-4)GlcNAc(b1-6)]Man(a1-6)[GlcNAc(b1-3)Gal(b1-4)GlcNAc(b1-2)Man(a1-3)]Man(b1-4)GlcNAc(b1-4)GlcNAc
How it was run: as §1

[29] = target: GlcNAc(b1-3)Gal(b1-4)GlcNAc(b1-3)Gal(b1-4)GlcNAc
How it was run: as §1

[30] = target: GlcNAc(b1-3)Gal(b1-4)GlcNAc(b1-3)Gal(b1-4)GlcNAc(b1-2)Man(a1-3)[GlcNAc(b1-3)Gal(b1-4)GlcNAc(b1-3)Gal(b1-4)GlcNAc(b1-2)Man(a1-6)]Man(b1-4)GlcNAc(b1-4)GlcNAc
How it was run: as §1

[31] = target: GlcNAc(b1-3)Gal(b1-4)GlcNAc(b1-3)Gal(b1-4)GlcNAc(b1-2)Man(a1-3)[GlcNAc(b1-3)Gal(b1-4)GlcNAc(b1-3)Gal(b1-4)GlcNAc(b1-2)Man(a1-6)]Man(b1-4)GlcNAc(b1-4)[Fuc(a1-6)]GlcNAc
How it was run: as §1

[32] = target: GlcNAc(b1-3)Gal(b1-4)GlcNAc(b1-3)Gal(b1-4)GlcNAc(b1-2)[GlcNAc(b1-3)Gal(b1-4)GlcNAc(b1-3)Gal(b1-4)GlcNAc(b1-6)]Man(a1-6)[GlcNAc(b1-3)Gal(b1-4)GlcNAc(b1-3)Gal(b1-4)GlcNAc(b1-2)Man(a1-3)]Man(b1-4)GlcNAc(b1-4)[Fuc(a1-6)]GlcNAc
How it was run: as §1

[33] = target: GlcNAc(b1-3)Gal(b1-4)GlcNAc(b1-3)Gal(b1-4)GlcNAc(b1-3)Gal(b1-4)GlcNAc(b1-2)Man(a1-3)[GlcNAc(b1-3)Gal(b1-4)GlcNAc(b1-3)Gal(b1-4)GlcNAc(b1-3)Gal(b1-4)GlcNAc(b1-2)Man(a1-6)]Man(b1-4)GlcNAc(b1-4)GlcNAc
How it was run: as §1

[34] = target: GlcNAc(b1-3)Gal(b1-4)GlcNAc(b1-3)Gal(b1-4)GlcNAc(b1-3)Gal(b1-4)GlcNAc(b1-2)Man(a1-3)[GlcNAc(b1-3)Gal(b1-4)GlcNAc(b1-3)Gal(b1-4)GlcNAc(b1-3)Gal(b1-4)GlcNAc(b1-2)Man(a1-6)]Man(b1-4)GlcNAc(b1-4)[Fuc(a1-6)]GlcNAc
How it was run: as §1

[35] = target: GlcNAc(b1-3)Gal(b1-4)GlcNAc(b1-3)Gal(b1-4)GlcNAc(b1-3)Gal(b1-4)GlcNAc(b1-2)[GlcNAc(b1-3)Gal(b1-4)GlcNAc(b1-3)Gal(b1-4)GlcNAc(b1-3)Gal(b1-4)GlcNAc(b1-6)]Man(a1-6)[GlcNAc(b1-3)Gal(b1-4)GlcNAc(b1-3)Gal(b1-4)GlcNAc(b1-3)Gal(b1-4)GlcNAc(b1-2)Man(a1-3)]Man(b1-4)GlcNAc(b1-4)[Fuc(a1-6)]GlcNAc
How it was run: as §1

[36] = target: GlcNAc(b1-3)Gal(b1-4)GlcNAc(b1-3)Gal(b1-4)GlcNAc(b1-3)Gal(b1-4)GlcNAc(b1-3)Gal(b1-4)GlcNAc(b1-2)Man(a1-3)[GlcNAc(b1-3)Gal(b1-4)GlcNAc(b1-3)Gal(b1-4)GlcNAc(b1-3)Gal(b1-4)GlcNAc(b1-3)Gal(b1-4)GlcNAc(b1-2)Man(a1-6)]Man(b1-4)GlcNAc(b1-4)GlcNAc
How it was run: as §1

[37] = target: GlcNAc(b1-3)Gal(b1-4)GlcNAc(b1-3)Gal(b1-4)GlcNAc(b1-3)Gal(b1-4)GlcNAc(b1-3)Gal(b1-4)GlcNAc(b1-2)Man(a1-3)[GlcNAc(b1-3)Gal(b1-4)GlcNAc(b1-3)Gal(b1-4)GlcNAc(b1-3)Gal(b1-4)GlcNAc(b1-3)Gal(b1-4)GlcNAc(b1-2)Man(a1-6)]Man(b1-4)GlcNAc(b1-4)[Fuc(a1-6)]GlcNAc
How it was run: as §1

B1: CFEM-PPl (Pichia pastoris), F2QPV1 (protein)
chain: AVATPPACLLACAAEVVKESSDCDALNNIQCICENEGSAIHACLESTCPDGLSSTALQSFEDVCESVGTEANLDE
- glycan array binding signal (z-score) (Glc(b1-4)Glc): -0.275
- glycan array binding signal (z-score) (Glc(b1-6)Glc): -0.28
- glycan array binding signal (z-score) (GlcA(b1-3)Gal): -0.158
- glycan array binding signal (z-score) (GlcA(b1-3)GlcNAc): -0.229
- glycan array binding signal (z-score) (GlcA(b1-6)Gal): 1.49
- glycan array binding signal (z-score) [1]: -0.288
- glycan array binding signal (z-score) [2]: -0.349
- glycan array binding signal (z-score) [3]: -0.335
- glycan array binding signal (z-score) [4]: -0.34
- glycan array binding signal (z-score) [5]: -0.285
- glycan array binding signal (z-score) [6]: -0.161
- glycan array binding signal (z-score) [7]: -0.357
- glycan array binding signal (z-score) [8]: -0.209
- glycan array binding signal (z-score) [9]: -0.278
- glycan array binding signal (z-score) [10]: -0.027
- glycan array binding signal (z-score) [11]: 1.68
- glycan array binding signal (z-score) [12]: -0.247
- glycan array binding signal (z-score) [13]: -0.263
- glycan array binding signal (z-score) [14]: -0.088
- glycan array binding signal (z-score) [15]: -0.298
- glycan array binding signal (z-score) [16]: -0.286
- glycan array binding signal (z-score) [17]: -0.193
- glycan array binding signal (z-score) [18]: 0.002
- glycan array binding signal (z-score) [19]: -0.379
- glycan array binding signal (z-score) [20]: -0.149
- glycan array binding signal (z-score) [21]: -0.302
- glycan array binding signal (z-score) [22]: -0.088
- glycan array binding signal (z-score) [23]: -0.345
- glycan array binding signal (z-score) (GlcNAc(b1-3)Fuc): -0.321
- glycan array binding signal (z-score) (GlcNAc(b1-3)Gal): -0.275
- glycan array binding signal (z-score) [24]: -0.202
- glycan array binding signal (z-score) (GlcNAc(b1-3)Gal(b1-4)Glc): -0.288
- glycan array binding signal (z-score) [25]: -0.317
- glycan array binding signal (z-score) [26]: -0.208
- glycan array binding signal (z-score) [27]: -0.223
- glycan array binding signal (z-score) [28]: 0.41
- glycan array binding signal (z-score) [29]: -0.282
- glycan array binding signal (z-score) [30]: 0.02
- glycan array binding signal (z-score) [31]: -0.057
- glycan array binding signal (z-score) [32]: -0.038
- glycan array binding signal (z-score) [33]: -0.083
- glycan array binding signal (z-score) [34]: -0.05
- glycan array binding signal (z-score) [35]: -0.098
- glycan array binding signal (z-score) [36]: -0.188
- glycan array binding signal (z-score) [37]: -0.247
